Data published in PMC6919601, “Identification of Plasmodium dipeptidyl aminopeptidase allosteric inhibitors by high throughput screening” (PLoS ONE, 2019).
Hit rate of the full screen: of about 110,000 compounds, about 230 (0.21%) showed an effect of 50% or more. The list shows a part of the results.

Each compound was assayed against DPAP1 (Plasmodium falciparum, UniProt Q8IIJ9) (assay: primary screen, percent inhibition; read by cleavage of a fluorogenic dipeptide substrate; higher = more effect of the substance).
Sequence of DPAP1 (Q8IIJ9 whole entry, looked up): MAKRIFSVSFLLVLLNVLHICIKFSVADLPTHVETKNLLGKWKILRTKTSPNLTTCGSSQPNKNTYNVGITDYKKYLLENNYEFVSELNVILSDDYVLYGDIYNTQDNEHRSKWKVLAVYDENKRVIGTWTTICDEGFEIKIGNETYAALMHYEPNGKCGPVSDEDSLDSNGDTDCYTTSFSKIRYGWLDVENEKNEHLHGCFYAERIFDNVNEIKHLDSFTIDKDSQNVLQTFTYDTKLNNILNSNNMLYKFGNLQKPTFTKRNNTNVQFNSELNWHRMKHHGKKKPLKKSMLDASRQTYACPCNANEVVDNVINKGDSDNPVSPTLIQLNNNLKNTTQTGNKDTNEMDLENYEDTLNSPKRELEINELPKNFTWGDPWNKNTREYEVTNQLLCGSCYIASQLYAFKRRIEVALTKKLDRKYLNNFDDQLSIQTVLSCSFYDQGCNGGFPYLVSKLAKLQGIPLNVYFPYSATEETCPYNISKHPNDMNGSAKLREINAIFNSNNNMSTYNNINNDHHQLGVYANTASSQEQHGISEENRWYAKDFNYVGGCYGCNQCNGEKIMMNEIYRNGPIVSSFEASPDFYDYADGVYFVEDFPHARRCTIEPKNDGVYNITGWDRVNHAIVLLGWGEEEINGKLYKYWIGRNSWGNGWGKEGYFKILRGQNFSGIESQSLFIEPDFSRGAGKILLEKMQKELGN
Parameters: species or system P. falciparum D10 trophozoite lysates; single well
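Note: 30 min substrate incubation versus DMSO and 10 µM JCP410 controls.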

| Structure (SMILES) | % Inhibition @ 10 uM [%] |
| --- | --- |
| C=CCN(Cc1cc(OC)ccc1OC)C(=O)Nc1ccccc1 | -0.872 |
| Cc1nc2ccccc2cc1C(=O)Nc1ccc(Br)cc1 | 3.49 |
| O=C(NC(c1ccccc1)c1ccccc1)C(c1ccc(Cl)cc1)N1CCOCC1 (centres unmarked) | 18.1 |
| COc1ccc(C)cc1N(CC(=O)N1CCN(c2ccccc2F)CC1)S(C)(=O)=O | 1.64 |
| COc1cc(CN2CCN(Cc3ccccc3Cl)CC2)cc(OC)c1OC | 18.9 |
| COc1ccccc1/C=C/C(=O)c1c(O)nc(C)c2c1CCCC2 | -2.54 |
| COc1ccc(CC(=O)Nc2sc(Cc3ccccc3)c(C)c2C(N)=O)cc1 | 0.727 |
| CCOc1ccc(CCNCc2c(C(=O)O)n(Cc3ccccc3)c3ccccc23)cc1 | 0.277 |
| COC(=O)c1ccc(CS(=O)c2ccc(Br)cc2)o1 (centres unmarked) | -1.99 |
| CS(=O)(=O)N(CC(=O)N1CCN(c2cccc(Cl)c2)CC1)C1CCCCC1 | -3.43 |
| Cc1nn(Cc2ccc(C(=O)Nc3cccc(C(=O)O)c3)o2)c(C)c1Cl | 5.05 |
| Fc1ccc(C2CC(c3cccc(Br)c3)Nc3nnnn32)cc1 (centres unmarked) | 3.32 |
| CCCCC1=C(O)C(=O)c2ccccc2C1=O | 2.26 |
| CCCn1c2ccccc2c2cnn(CC(=O)NC3=NC(=O)CS3)c(=O)c21 | 3.05 |
| O=C(CNCc1ccco1)Nc1cccc(Cl)c1Cl | -6.24 |
| Cc1cc2nc(-c3ccc(C(=O)O)cc3)[nH]c2cc1C | 7.45 |
| Cc1ccc(C2CC(=O)N=C(NC(=O)c3ccc(Oc4ccccc4)cc3)N2)cc1 (centres unmarked) | -1.28 |
| COC(=O)c1cccc(NC(=O)COc2ccccc2)c1 | -5.51 |
| CN(C)c1ccc(/C=C2/Sc3ccccc3C2=O)cc1 | -5.9 |
| OCC1CCCN(Cc2ccc(Cl)cc2Cl)C1 (centres unmarked) | 6.53 |
| CCc1nnc(NC(=O)C2CCCCC2)s1 | 4.82 |
| Cc1noc(NS(=O)(=O)c2ccc(NC(=O)C(C)Oc3ccc(Cl)cc3Cl)cc2)c1C (centres unmarked) | 4.81 |
| CCCC(C)N1CCN(C(=O)CCCCn2c(=S)[nH]c3c([nH]c4ccc(OC)cc43)c2=O)CC1 (centres unmarked) | 13.8 |
| CCOC(=O)c1c(C)[nH]c(C)c1S(=O)(=O)NC1CCCc2ccccc21 (centres unmarked) | -0.884 |
| CCN(CCCNC(=O)Cn1nc(C)n2c(cc3sccc32)c1=O)Cc1ccccc1 | 0.137 |

| Structure (SMILES) | % Inhibition @ 10 uM [%] |
| --- | --- |
| CCC(=O)NCCc1ccc(OC)cc1 | -1.76 |
| COc1cccc(-c2n[nH]c(SCC(=O)O)n2)c1 | -1.8 |
| COCCn1c(=O)c2sc3ccccc3c2n(Cc2ccc(C)cc2C)c1=O | 4.91 |
| NC(=S)Nc1nc2cc(Cl)cc(Cl)c2nc1O | 6.82 |
| CN(C)CCCNC(=O)/C(=C\c1ccc(-c2ccc([N+](=O)[O-])cc2)o1)NC(=O)c1ccccc1 | -9.6 |
| CCOC(=O)C1CCCCN1Cc1cccc2ccccc12 (centres unmarked) | -0.192 |
| O=C(CCc1nnc2n(Cc3ccccc3)c(=O)c3ccccc3n12)NCC1CCCO1 (centres unmarked) | -6.07 |
| Cc1sc(NC(=O)c2cccnc2)c(C#N)c1C | -0.996 |
| COC(=O)C1=C(C)NC(=O)CC1c1cccc(F)c1 (centres unmarked) | 0.219 |
| CC1(C)CC(=O)C2=C(C1)N=C(S)C(C#N)C2c1ccc(Cl)cc1 (centres unmarked) | 7.12 |
| CCOC(=O)c1c(S(=O)(=O)N2CCC(c3ccccc3)C2)c(C)n(C)c1C (centres unmarked) | -9.47 |
| CCOC(=O)N1CCC(NC(=O)C2CCCN(c3nc4c(C)cc(C)cc4s3)C2)CC1 (centres unmarked) | 1.8 |
| CCN(CC)CCCNC(=O)c1ccc(CN2CC(=O)N3CCCCC3C2=O)cc1 (centres unmarked) | 7.23 |
| CCCN(CCC)C(=O)C1Sc2nnc(C)n2NC1c1ccc(OCC)cc1 (centres unmarked) | -3.53 |
| COc1cccc(S(=O)(=O)NCC(=O)Nc2ccc(C(C)(C)C)cc2)c1 | -5.26 |
| CCCCSc1nc(O)cc(-c2ccccc2)n1 | 5.49 |
| CCOC(=O)C1CCN(Cc2ccc(O)c(OC)c2)CC1 | 1.63 |
| OCCN1CCN(Cc2cccc(C(F)(F)F)c2)CC1 | 0.526 |
| CC(O)CN(Cc1ccc(-c2ccccc2)cc1)CC(C)O (centres unmarked) | -1.5 |
| O=C(Nc1cccc(Cl)c1)N1CCCCCC1 | -4.35 |
| COCCN(CCOC)c1ncnc2c1cnn2-c1cccc(C)c1 | 5.99 |
| Cc1cc(N2CCNCC2)nc(-c2ccccc2O)n1 | 4.42 |
| CC1(C)CC(NC(=O)c2cccs2)CC(C)(CNC(=O)c2cccs2)C1 (centres unmarked) | -6.62 |
| COc1ccccc1CC(=N)NOC(=O)c1cccc(Br)c1 | 2.17 |
| CC(=O)c1ccc(NC(=O)NC2CCCCC2)cc1 | 3.67 |
